The source gives no read counts; variants with many changes may rest on few reads.

First the molecules themselves.
B1: LINE1-full (parent)
chain: UACGUAGGUGGUUUUCCCCUGAUAGUGCUAAGGGGGCCUGGAAGUUUGGACUGGGCAGAGCUCAACACAGCGUGGCAAAGUGGCUGUGGCUAGACUGCCUCUCUGGAUUCCUCGUCACUCAGCAGGGCAUCUCUGAGAGAAAUGCC

The data set covers variants of B1. Put plainly: self-cleavage, relative activity (ratio to wild type); higher = more cleavage; in vitro, sequencing; the parent is a self-cleaving ribozyme.
Regarding U52A U132C U134G, the self-cleavage is 1.53.
Next, U52C A107G A142G: 2.51; A59G A79C U87A U130A: 0.
Next, A57G U109C C113U: 0.45.
On to U52A A59G U85A U104C, for which the self-cleavage worked out at 0.28.
Regarding A57G U96C A141G, the self-cleavage is 2.45.
Turning to G53A U81A U119C, the self-cleavage was found to be 2.67.
In the case of C51U U132A A138U, the self-cleavage was found to be 1.71.
To G53A A117G C123G A124G belongs 1.23.
Next, A57G U62A A69G: 0.06; G55U A124G A141G: 0.08; C51U U102C U132C: 1.48.
Next, A57G U108C A142G: 1.15.
In the case of G58U U73A A78G U134A A142G, the self-cleavage was found to be 0.03.
To A59G A92C A124U belongs 0; to U52A C84U U104A, 0.05; to U52C G86A U100C A129G, 0.13.
Next, A57G C63U U130C: 0.28; A57G U73A C76U A92G: 0.13.
Next, U52A A64G A78G A107U: 0.51.
U52A A57G U132C: the self-cleavage was determined as 0.7.
With U52A A69G C128A G137U A138G, the self-cleavage was 0.62.
Next, C56U C110U A136G: 0.27.
Turning to U52G U102C U108A A124G A141U, the self-cleavage came to 2.76.
Next, U52C U62C U73C: 0.
With U52A G82A A124G, the self-cleavage is 1.98.
On to A57G U85A U119A A136G, for which the self-cleavage was 0.07.
As to A59C U81C G93U, the self-cleavage came out at 0.1.
Next, A57C U108A A129U: 0.11; C56U A79G C103A: 0; A59G A69G U130C: 0.
Next, G54A A65G U134C: 0.08; A57G U104A U134C: 0.4.
Next, C56U G74A A79G U108C: 0.17; C51U G72U A124G: 0.92.
As to A57G A64U A67U, the self-cleavage was 0.05.
For A57U A79U U112C A140G A142G, the self-cleavage came out at 0.03.
Regarding C51A A64U A94G G106A, the self-cleavage is 0.1.
To C51A A57G U73G A138G belongs 1.46.
Turning to U52C U96A A124G U132A, the self-cleavage was found to be 0.
To G58U A121U C133A belongs 0.05; to C51A U87G U112C U119C, 0.13; to U52C U96A A138G, 0.
In the case of A59G A64G A142G, the self-cleavage came to 0.
To G58A G82U U119C A141G A142U belongs 0.05; to C56A U134C A140U, 0.02; to A59G A92G A107G, 0.
Next, C56U C90U C95U: 0.05; G58A U91C A129G: 0.04; A57G U62C A140G: 0.13.
To A57C A94C A121U belongs 0; to G55A A69G U91C U132C, 0.05; to A57G U91C U134C, 0.
As for A57U A65G U130A, the self-cleavage was found to be 0.13.
Next, U52A U81A U87C A138G: 0.22; U52A U73A C76U U100A: 2.74; A57C U62A U100A U109C U132C: 0.
Next, U52A A59G A64G: 0.21; G53U A77C A78U U102C A141G: 0.84; U52A U73A U115C: 2.03.
As for U52A A57C C101U A117G A138G G139U, the self-cleavage was determined as 0.05.
As to A57G C71A U104A A140G, the self-cleavage was determined as 0.03.
To G53A A67U U130C belongs 0.13; to A57G U85A U104A U115C C116U, 0.03; to G55A A64G A94G, 0.02.
To G53A A67G U87A U108C A138U belongs 0.08.
Next, A57G A67G U115C: 0; U52A A77G U130C U134C: 2.35; A57G U62C U119A A121U: 0.02.
Consider U52C G82A U100A U130C, for which the self-cleavage was 0.92.
Next, C51A A107U C123U: 0.44; G55U A64U A94G A136G: 0.06.
To C51U U119C A121G belongs 1.39; to A57G U87C U104A A138G, 0.2.
Next, A57U A79G A124G A141G: 0; A57U U81A U102C: 0.15.
In the case of G58A A94U A121U, the self-cleavage came to 0.02.
Next, A59G A67G A69U: 0.
To A57G A77U U96A A117G belongs 0; to G54A U62C U87C, 0.
To U52A A69G A121C G122U belongs 0.74; to U52G A57G U130C A141G, 0.71.
Regarding A57C C90A U119C, the self-cleavage worked out at 0.
To G54A U62C U104A belongs 0.04.
Next, A57G A136U A138G: 1.24; G54A A117G A141G: 0.57.
To A57G U81C A92G belongs 0.
For the variant U52A A107U U119A, the self-cleavage is 0.78.
To A57G G88U A94G U115A U143C belongs 0.03; to C51A U109C A141G, 1.58.
To U52A U87C C120U A142G belongs 0.22; to C56U A57U A64G U100C, 0.21.
To A57U G86A A142G belongs 0.02.
As to G53A U91C U104C, the self-cleavage came out at 0.71.
To U52C G114C A124U belongs 1.48; to A57U U104G U119A C120U, 0.04; to C51U A57G U96A U115C, 0.
Next, U52C G80A G88A U91C A136G: 0.04; A59C U73A U87A A138U: 0.05; U52G A92U U115C A129U: 0.
Next, A57G A78G U85C A138G: 0.
For A57G A79G A124G, the self-cleavage was 0.51.
Next, A57G G122A U134C: 0.74; G58U U132C A142U: 0.03.
Next, U52A A67U A79G U81C G127A U134C: 0.18.
To U52C A59G A65G A69U C76U U87C U119A belongs 0; to U52A U102C U143C, 0.79; to A57G U115A A142G, 1.23.
For U52A U85C U96C, the self-cleavage worked out at 0.18.
To U52C G93U A117G belongs 0.02.
As for U52C A67C A138C, the self-cleavage turned out to be 0.
To C51U U108C U115A belongs 1.13.
For the variant U52C G70U U108C, the self-cleavage turned out to be 0.1.
Next, A57G A107G C113U: 0.26; A57U U115A A124G: 0.03.
Next, G53U A107G A117C A124G: 1.38; A57U G105C A142G: 0.09.
Next, A57U U109A A141G: 0.38.
As for G54U U130C U134A, the self-cleavage turned out to be 1.
Next, A57G A77G A141G: 1.58; U52C A57U A79G: 0.24; G55C A57G A65G: 0.
With A57U U62C A136U, the self-cleavage was 0.
To A57C U87A U100C U143A belongs 0; to G54A A77G A78G U102C U134C, 0.33; to G53A A107U C146U, 1.14.
To A57U A121G A141U belongs 0.23; to U52G U109C A138U, 0.77.
Next, U52C U85A A129G: 0.14; G53A C84U A136U: 0.09.
For U52A G60A U91C A92G U134C, the self-cleavage is 0.02.
To G54A U85A U132C belongs 0.05; to U52A U96C U134A, 0.11; to U52A C103A U104C A142G, 1.19.
Next, U52C A140G A142G: 1.77.
Next, C51U A77C U85C: 0.16; G53A U104A U112C U134A A141G: 1.86; A57G U100C U134C: 0.71.
For C51U C63A U96C, the self-cleavage came out at 0.03.
Next, A59G A67G A117U A140U: 0.27; A57U A65G A77U U81G: 0.06.
To C56U U109C U112A A121G belongs 0.05; to A57G A77C A79C A138U, 0.97.
To A57G U104A U132C belongs 0.34.
Turning to U52C A65G U85C, the self-cleavage was determined as 0.
To U52A A67U A78G belongs 0.08; to U52C C113U A121G U130C, 1.64; to C51A A129G A141G A142G, 1.11.
Next, G58U U73G U100A C123U A129G A141G: 0; A57G A78G A92U: 0.1; G54A A57U U87C U102C U115C: 0.
As to U52A U81C U85C, the self-cleavage came out at 0.45.
Next, G54C U100A A121G: 0.69; G55A A59G U91C: 0.02.
Next, U52A U73C U100C: 1.45.
As to C56U A57C A65G G122U U132C, the self-cleavage worked out at 0.09.
Regarding G54U A77G A129G, the self-cleavage turned out to be 0.49.
In the case of G54A U87C A94G, the self-cleavage was determined as 0.05.
Next, A57G C116U G122A A138G: 0.88.
Next, A59G A107G A142G: 0; A57G A78G A121C: 0.19.
Next, U52C U109A U132C: 1.69; G58A U100C A142G: 0.06; U52A U119A U134A: 1.24.
On to A57G C68U A69U, for which the self-cleavage is 0.1.
For U52C A77G A140G A141G, the self-cleavage came out at 2.3.
To A59G A69G A79G belongs 0.17.
